The source of these data is article PMC5892938.

The other results are listed elsewhere or left out. At the low end of the ranking the order means little.

The target of the test is GST-SBP-SLBP (stem-loop binding protein) (UniProt Q14493). Nature of the test: targeted RNA Bind-n-Seq.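 Note: DESeq read counts versus GST-SBP nonspecific binding control pulldown.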 Particulars: RBNS binding buffer: 25 mM Tris pH 7.5, 150 mM KCl, 3 mM MgCl2, 0.1% Tween, 0.5 mg/mL BSA, 1 mM DTT; 27 nM protein, 750 pM RNA pool; temperature not stated; high values mean tight binding.
In the case of “GGUCACGUCUCAAUCAACUCAAUUCCCAGGGAAAACCCUGGUUUACUCAACAGCUCGCAGUCAAG”, the binding signal (log2 fold change) was found to be 0.194.

On to “GGUCACGUCUCAAUCAACUCUUUUUCCAGGGAAAACCCUGGCUAUCUCAACAGCUCGCAGUCAAG”, for which the binding signal (log2 fold change) stood at 0.0953. In the case of “GGUCACGUCUCAAUCAACUCUACUUCAGGAGUUUACUCCUGUUUAUUCAACAGCUCGCAGUCAAG” it was -0.0221. The value for “GGUCACGUCUCAAUCAACUCAUCGCCCAGGGAAAGCCCUGGUUAAUUCAACAGCUCGCAGUCAAG” was 0.329.

For the sequence “GGUCACGUCUCAAUCAACUCUACUCCCAGGGAAAUCCCUGGCUUACUCAACAGCUCGCAGUCAAG”, the binding signal (log2 fold change) stood at 0.0296. The value for “GGUCACGUCUCAAUCAACUCAUCGCCCAGGGAAACCCCUGGUUUUCUCAACAGCUCGCAGUCAAG” was -0.0927. In the case of “GGUCACGUCUCAAUCAACUCAAUUCCAGGAGUUUUCUCCUGCAAAUUCAACAGCUCGCAGUCAAG”, the binding signal (log2 fold change) came to 0.0343. With “GGUCACGUCUCAAUCAACUCCAUAGAGGGGGGGAAAACCCCUUUACCCUCACACUCAACAGCUCGCAGUCAAG”, the binding signal (log2 fold change) came out at 0.698.

Regarding “GGUCACGUCUCAAUCAACUCAAUCCCAGGAGUUUCCUCCUGCUAAUUCAACAGCUCGCAGUCAAG”, the binding signal (log2 fold change) stood at 0.227.

Consider “GGUCACGUCUCAAUCAACUCACAAGAGGGGGGGAAAACCCCUUUGCCCUCCAACUCAACAGCUCGCAGUCAAG”, for which the binding signal (log2 fold change) amounted to 0.0823.

In the case of “GGUCACGUCUCAAUCAACUCUAUCGAGGGGGGGAAAACCCCUUUACCCUCACUAUCAACAGCUCGCAGUCAAG”, the binding signal (log2 fold change) is -0.148.

In the case of “GGUCACGUCUCAAUCAACUCUAUCCCAGGAGUUUGCUCCUGCAUAUUCAACAGCUCGCAGUCAAG”, the binding signal (log2 fold change) came to 0.00267. In the case of “GGUCACGUCUCAAUCAACUCUUCGCCCAGGGAAAGCCCUGGUAAAUUCAACAGCUCGCAGUCAAG” it was -0.144; in that of “GGUCACGUCUCAAUCAACUCAUUUCCCAGGGAAAGCCCUGGCAAUUUCAACAGCUCGCAGUCAAG”, -0.0864; in that of “GGUCACGUCUCAAUCAACUCUUUUUCAGGAGUUUCCUCCUGUAAUGUCAACAGCUCGCAGUCAAG”, -0.0571.

In the case of “GGUCACGUCUCAAUCAACUCAAUCUCAGGAGUUUACUCCUGCUAAUUCAACAGCUCGCAGUCAAG”, the binding signal (log2 fold change) is -0.0611. The value for “GGUCACGUCUCAAUCAACUCAUCGCCAGGAGUUUUCUCCUGCUUUUUCAACAGCUCGCAGUCAAG” was -0.171. In the case of “GGUCACGUCUCAAUCAACUCUAUUUCCAGGGAAACCCCUGGCUUACUCAACAGCUCGCAGUCAAG” it was -0.161.

For “GGUCACGUCUCAAUCAACUCAUCUCCCAGGGAAAUCCCUGGUUAAUUCAACAGCUCGCAGUCAAG”, the binding signal (log2 fold change) is -0.173.

Turning to “GGUCACGUCUCAAUCAACUCUUCGCCCAGGGAAACCCCUGGUAUUCUCAACAGCUCGCAGUCAAG”, the binding signal (log2 fold change) is -0.108.

For “GGUCACGUCUCAAUCAACUCAAAAGAGGGGGGGAAAACCCCUUUGCCCUCAAUGUCAACAGCUCGCAGUCAAG”, the binding signal (log2 fold change) is -0.271.
